The other results are listed elsewhere or left out.

Our source for the binding signal values is PMC12135187, “A role for pH dynamics regulating transcription factor DNA-binding selectivity”.

This assay deals with T1, FOXC2 DBD WT (UniProt Q99958 72-172).
T1 sequence: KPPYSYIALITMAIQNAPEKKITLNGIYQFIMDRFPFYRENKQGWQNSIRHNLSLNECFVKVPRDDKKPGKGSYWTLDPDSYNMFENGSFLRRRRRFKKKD
Briefly: SELEX-seq (GST pull-down, four rounds, 16-nt random library); pH 7.0; 20 mM HEPES, 140 mM KCl, 0.05 mM TCEP-HCl, pH 7.0, room temperature, 30 min; 2.5 uM GST-FOXC2 DBD, 0.25 uM DNA library; high values mean tight binding. The note with it: protein: recombinant; tags: N-terminal GST (pGEX-6P-2); dsDNA, one strand shown. In outline:
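GST-tagged FOXC2 DNA-binding domain (E. coli-expressed, glutathione-purified) was incubated with a DNA library carrying a 16 bp randomized region, at 0.25 μM DNA and 2.5 μM protein, for 30 min at RT in 20 mM HEPES, 140 mM KCl, 0.05 mM TCEP–HCl, pH 7. Complexes were captured on glutathione Sepharose beads, washed, heat-eluted and PCR-amplified over four rounds. Initial and selected libraries were Illumina MiniSeq sequenced. Relative enrichment came from the Bioconductor SELEX R package.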
Turning to ATAACC, the binding signal worked out at 0.406 relative enrichment.
Consider TATAAA, for which the binding signal was determined as 0.283 relative enrichment.
As for TTCACT, the figure is 0.426 relative enrichment.
For the sequence ATTCCG, the binding signal was 0.485 relative enrichment.
Turning to AAGTCA, the binding signal is 0.436 relative enrichment.
For the sequence CCTGTG, the binding signal came to 0.491 relative enrichment.
Take TCTTGA: the binding signal was found to be 0.438 relative enrichment.
As for ACTTGA, the figure is 0.341 relative enrichment.
As for AATGTG, the binding signal stood at 0.373 relative enrichment.
GATCTA: the binding signal was 0.537 relative enrichment.
As for AGAAAT, the figure is 0.419 relative enrichment.
In the case of CGTCTA, the binding signal worked out at 0.644 relative enrichment.
For the sequence TTCACA, the binding signal was 0.27 relative enrichment.
As for AAGCTG, the figure is 0.325 relative enrichment.
In the case of GTATCA, the binding signal turned out to be 0.372 relative enrichment.
On to GTATAA, for which the binding signal was found to be 0.285 relative enrichment.
Regarding TCATAC, the binding signal worked out at 0.381 relative enrichment.
Regarding AAGCCA, the binding signal came out at 0.413 relative enrichment.
Consider CACCGT, for which the binding signal was found to be 0.539 relative enrichment.
Regarding AATTCG, the binding signal was 0.391 relative enrichment.
As for AAACTT, the binding signal came to 0.277 relative enrichment.
With CAACCA, the binding signal was 0.261 relative enrichment.
On to CCAAAA, for which the binding signal worked out at 0.344 relative enrichment.
ACAGCT: the binding signal stood at 0.309 relative enrichment.
Under ATAAAC stands 1 relative enrichment; under ATCCTG, 0.428 relative enrichment.
Under CCTATA stands 0.569 relative enrichment; under TACCCT, 0.504 relative enrichment; under CAATAA, 0.513 relative enrichment.
As for ATCGCT, the figure is 0.518 relative enrichment.
Turning to CTTTTC, the binding signal stood at 0.422 relative enrichment.
Consider CAAATA, for which the binding signal came out at 0.707 relative enrichment.
On to ACTAGT, for which the binding signal turned out to be 0.444 relative enrichment.
TACGTA: the binding signal came to 0.539 relative enrichment.
As for TACTAC, the figure is 0.438 relative enrichment; as for AATCGT, 0.337 relative enrichment.
Consider AAGTAT, for which the binding signal was 0.367 relative enrichment.
In the case of CAGCAT, the binding signal is 0.356 relative enrichment.
For AAAAAC, the binding signal was found to be 0.276 relative enrichment.
In the case of GGACAA, the binding signal is 0.265 relative enrichment.
Regarding AATAAG, the binding signal came to 0.686 relative enrichment.
Consider AAAATC, for which the binding signal stood at 0.32 relative enrichment.
With GCTCAA, the binding signal worked out at 0.305 relative enrichment.
For the sequence CATCAA, the binding signal worked out at 0.4 relative enrichment.
Take TCTCTT: the binding signal is 0.407 relative enrichment.
In the case of CGCAAT, the binding signal worked out at 0.294 relative enrichment.
For the sequence CATACG, the binding signal turned out to be 0.448 relative enrichment.
For the sequence CTAATC, the binding signal is 0.454 relative enrichment.
AAAATG: the binding signal was 0.205 relative enrichment.
As to AGGCAA, the binding signal was determined as 0.341 relative enrichment.
For ACATCG, the binding signal came to 0.521 relative enrichment.
Turning to TTACCG, the binding signal came out at 0.42 relative enrichment.
Take ACACGG: the binding signal stood at 0.442 relative enrichment.
On to AATTCT, for which the binding signal worked out at 0.354 relative enrichment.
As for CATCTA, the binding signal is 0.42 relative enrichment.
As to CAACGC, the binding signal turned out to be 0.322 relative enrichment.
With AGGTTG, the binding signal turned out to be 0.313 relative enrichment.
Take AATACG: the binding signal came out at 0.61 relative enrichment.
As for ATCTAC, the figure is 0.461 relative enrichment.
Take CAAAGC: the binding signal is 0.325 relative enrichment.
For AGCTAA, the binding signal amounted to 0.285 relative enrichment.
Turning to ACTATG, the binding signal amounted to 0.393 relative enrichment.
For the sequence ATAGCC, the binding signal was 0.391 relative enrichment.
Regarding ATCGAT, the binding signal was 0.389 relative enrichment.
With CCTAGT, the binding signal was determined as 0.64 relative enrichment.
In the case of AATTAT, the binding signal is 0.268 relative enrichment.
As to ATCCTT, the binding signal is 0.401 relative enrichment.
For AGCTTA, the binding signal is 0.423 relative enrichment.
With CGCATT, the binding signal was 0.382 relative enrichment.
With ATTCGC, the binding signal came out at 0.47 relative enrichment.
As for AATCAC, the figure is 0.366 relative enrichment.
Regarding AACGCT, the binding signal amounted to 0.345 relative enrichment.
Turning to ACGTTA, the binding signal came to 0.263 relative enrichment.
As for CAGTAA, the figure is 0.415 relative enrichment; as for AGCAAT, 0.405 relative enrichment.
With CGCTTT, the binding signal stood at 0.276 relative enrichment.
Regarding CATCTC, the binding signal was determined as 0.642 relative enrichment.
As for ATGCTA, the figure is 0.343 relative enrichment.
Under GCGTAA stands 0.422 relative enrichment.
Turning to CACAAG, the binding signal was determined as 0.295 relative enrichment.
As to ATATGA, the binding signal was determined as 0.356 relative enrichment.
TTGCAA: the binding signal was found to be 0.353 relative enrichment.
On to GCTTAC, for which the binding signal was 0.467 relative enrichment.
On to CACCAT, for which the binding signal was determined as 0.56 relative enrichment.
Regarding GTTAAC, the binding signal is 0.267 relative enrichment.
As for CGGTTA, the binding signal came out at 0.262 relative enrichment.
For ACTTAA, the binding signal was determined as 0.302 relative enrichment.
Regarding CATTTA, the binding signal came to 0.393 relative enrichment.
Take ATCAAA: the binding signal amounted to 0.322 relative enrichment.
As for AAGAGT, the figure is 0.371 relative enrichment; as for AGTATA, 0.29 relative enrichment; as for ATTGAA, 0.446 relative enrichment.
In the case of ATACAG, the binding signal is 0.285 relative enrichment.
AATGCA: the binding signal worked out at 0.391 relative enrichment.
For AACGAA, the binding signal amounted to 0.281 relative enrichment.
As to AGACTA, the binding signal was 0.502 relative enrichment.
As for ACCCAA, the figure is 0.434 relative enrichment.
Turning to CTACGT, the binding signal is 0.554 relative enrichment.
Under AAGCTA stands 0.297 relative enrichment.
As to ACAGGT, the binding signal was 0.428 relative enrichment.
For CTGCAT, the binding signal stood at 0.524 relative enrichment.
AGTACA: the binding signal was found to be 0.385 relative enrichment.
For TACTGA, the binding signal came to 0.461 relative enrichment.
Consider AGATTA, for which the binding signal is 0.329 relative enrichment.
For AAAGAC, the binding signal was determined as 0.309 relative enrichment.
GCTTAA: the binding signal is 0.347 relative enrichment.
Consider TACATA, for which the binding signal came to 0.312 relative enrichment.
As to ATTCCA, the binding signal stood at 0.428 relative enrichment.
Regarding CAGATA, the binding signal is 0.389 relative enrichment.
Under TACGCA stands 0.486 relative enrichment; under CTCTCT, 0.618 relative enrichment; under CCTCTA, 0.483 relative enrichment.
As for ATCGCA, the binding signal came to 0.464 relative enrichment.
As to AAACGC, the binding signal worked out at 0.351 relative enrichment.
As to GTTAAA, the binding signal worked out at 0.356 relative enrichment.
Turning to GCTACA, the binding signal was found to be 0.348 relative enrichment.
As for AAATCA, the binding signal was determined as 0.34 relative enrichment.
Turning to AGCAAG, the binding signal was found to be 0.404 relative enrichment.
For TAAGAA, the binding signal was 0.346 relative enrichment.
Take AAAAAT: the binding signal is 0.241 relative enrichment.
Under GTTCTA stands 0.454 relative enrichment; under AAAAAG, 0.29 relative enrichment; under ACTTAT, 0.389 relative enrichment.
For AACATG, the binding signal is 0.351 relative enrichment.
As to GACTAA, the binding signal stood at 0.469 relative enrichment.
